# Assay results from the RNAGym collection of RNA variant scans (doi:10.1093/nar/gkz1192).
# The source gives no read counts; variants with many changes may rest on few reads.
# B1: CPEB3 Ribozyme (parent)
# chain: UAACAGGGGGCCACAGCAGAAGCGUUCACGUCGCAGCCCCUGUCAGAUUCUGGUGAAUCUGCGAAUUCUGCUGUAUAUCUC
# Variants of: B1
# Test: self-cleavage, relative activity (ratio to wild type); higher = more cleavage; in vitro, sequencing
# Method in brief: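 Libraries of CPEB3 self-cleaving ribozyme mutants came from rounds of error-prone PCR and carried barcodes, which DNA sequencing matched to variants. In vitro transcription used T7 RNA polymerase at 37°C for 5 hours, with a further 15 min in DNase I before EDTA stopped the reaction; the ribozymes cleaved during both steps. The RNA was reverse transcribed with template switching and sequenced on Illumina. Relative activity is the cleaved/total read fraction of a variant divided by that of the unmutated ribozyme, averaged over three batches with at least 5 reads.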
row,Variant,self-cleavage
1,A3U A15G U41A,0.36
2,A3U A18G G52A U60A,0.33
3,A3U C44U U66A U67C U72C,0.1
4,A3G U54C A56U U58C U66C U74A A77G,0.11
5,A3G G30U G53A U60C U66C,0.14
6,C4A C32U U60C A64U C71U A77G,0.05
7,C4U A21G A47C A57G A65G U67C U72C,0.07
8,A3G U26C U31A A35G G52C U60C U80A,0.18
9,A3U U31C U58C U69A,0.26
10,A3U U48C U58C G63A A64C U80C,0.09
11,A3U C62U G70A,0.17
12,C4U A20U A56G U58A U72C,0.18
13,A3G U26A A35U A56G C62G U69C,0.25
14,C4A A15G A20G C27U U41C A45G U51A,0.09
15,A3G U31C A65G,0.58
16,A3G U31A C59A,0.25
17,A3G U25C U60C,0.42
18,A3U G36C U43C U69C,0.07
19,A3G G16C C27A U67C,0.25
20,C4U A13G G46A U54C,0.14
21,A3G U48C U69A,0.34
22,C4U C12U A21G U31C U48C U74A U78A,0.23
23,A3G G24A A28G U43C A56G U80C,0.12
24,C4U A18G U51C A56G,0.62

row,Variant,self-cleavage
1,C4A A15G A57G,0.64
2,A3U A13G C23U U49C U72G,0.05
3,C4U A18G G19A U78C,0.17
4,C4G A15G G19U U31A U58C U67A,0.13
5,A3U A15G U41A A45G A57G U80C,0.03
6,C4U G6C A18G C38A U41C U54A,0.09
7,A3G U26A U48C,0.37
8,A3G U43A U69C,0.67
9,A3U A35U U66C U67C,0.19
10,A3U G6A U25C A45G U66C,0.23
11,A3U G8A G16A U78C,0.54
12,A3U A15U A45G,0.84
13,A3G U25C U31C A56G,0.48
14,A3U A13U U26A U58C U60A U66C,0.24
15,A3G U25A U26C A75U,0.65
16,A3U G10U U51A G70A U80C,0.13
17,A3G U25C C34G,0.41
18,A3U G63A U76C,1.06
19,A3G G19A G33C,0.37
20,C4U G8A C12G G33C C40A U54A A77G,0.03
21,A3U G6A G9U C37G U60A,0.05
22,A3U A15C G30U,0.35
23,C4U C12U A13G U25C U72A A75U U80C,0.09
24,A3G U25A U43A G63U,0.29

row,Variant,self-cleavage
1,A3G G16A A28G U80C,0.25
2,A3U U49C U51C,0.39
3,A3G U31A G36A U51A G53U,0.08
4,A3U G7U A28C U31A U41C U58C,0.05
5,A3G U41C U51C U60C U80A,0.64
6,A3G U54A A65U U80C,0.38
7,A3G U26C U51A U76C,0.25
8,A3G G30A U60C A65C A77G,0.22
9,C4U G7A A21G U25C U26A A64G U69A,0.12
10,A3U G16A U58C,0.33
11,A3U U43C U54C,0.48
12,A3G U31A U72C,0.5
13,A3U U26C A28G U31A G33C U41A U54C,0.07
14,A3G U41A U58A C59A A64U,0.14
15,A3U G46A G63A U72C,0.09
16,A3U A20G U48C U51G A64G U74C A75G,0.33
17,C4A A5C A45G U54C,0.81
18,A3U C68U U72A A77U U80A,0.47
19,A3U G7U U25C,0.07
20,A3U A13G A18C C40U A45G U76A U80C,0.37
21,A3G U25A U51A G63A A64G U72G U76G,0.17
22,A3U G7C U31A U43C U72C A75G,0.25
23,C4U A21G A28G,0.5
24,A3G U72C U76A,1.15

row,Variant,self-cleavage
1,A3U C17U U72A,0.71
2,A3U A13C U80C,1.18
3,A3U A56G U69C,0.42
4,C4U A15U U43A G52U A57G A75G,1.27
5,A3U A13C A35C,0.67
6,A3U A15U U31C G61U U74A,0.39
7,A3G U49C C50A U74C,1.04
8,C4A U31G U58C,0.39
9,A3G U26C C29U A56G,0.32
10,C4A A20U A35U U41A A64G U67C,0.08
11,A3U A18U U26C A47U,0.26
12,A3G U25C U54C,0.46
13,A3G U25C G52C U60C,0.23
14,A3U A21G A47G U51C U67C,0.38
15,A3U G10A A28G A35U U48C U51A,0.2
16,A3G U25A G61A,0.16
17,A3U A18G A28G,0.44
18,C4U A20G U25C A45G,0.3
19,C4U A15G U66C,0.57
20,A3U A28G U51A U78C,0.37
21,C4U A35U A57G U58A U72C,0.27
22,C4G U31C U76A,1.06
23,A3G G73U U76C,1.2
24,A3G U26C U49C U58C U80A,0.13

row,Variant,self-cleavage
1,A3U G7U G10A A13U G52U U58C U72C,0.08
2,A3G U66C U67C,0.34
3,A3U C12G A21C A47G U51C A75G,0.07
4,C4U A35G A64U,1.08
5,A3G U26C A35G C50G,0.94
6,A3U G30C U51A U74C U80C,0.16
7,A3U G7C U54C A56G,0.53
8,C4G A5U U43A,1.14
9,A3G U26C U41C A47G U66A G70A,0.09
10,A3U A18U U72A,0.3
11,A3G U25C U66G U72C U78A,0
12,C4U C29U U67A,0.4
13,A3U U25G A45G U49A U72A,0.2
14,A3U C14A C23A C27G A35U C37U U78C,0.07
15,A3U U26A U48A U54A A56G,0.15
16,A3G U26C A45G U51A,0.36
17,C4G A20G G53A U67A U69G,0.26
18,A3U A18C U25C U51A,0.09
19,A3G G16U C37U U60A,0.09
20,A3G U66G U78A,0.45
21,C4U G6U U58A U60G U69C,0.1
22,A3G U25C A28G A77G,0.58
23,A3G U41C A64U,0.56
24,A3G U25C U58C U78C,0.1

row,Variant,self-cleavage
1,C4A A56U A64G U72C U76C,0.84
2,A3U A13G A18C A28G C40U U76A U80C,0.17
3,A3G G24A U25C A35G U41C,0.09
4,A3U A28G U69A U72A,0.16
5,A3U G6U U54C G55A G61C A64G,0.21
6,A3G U49C U58G,0.37
7,A3U U26C U58A U76C,0.2
8,A3U A13G U26A A47G U51A G61U,0.77
9,A3G U51A U66C,0.11
10,A3G G19A U26C U49C,0.08
11,A3U U41C A56G,0.68
12,A3G U26C A45U U74A U80C,0.21
13,A3U G7U G24A A35G A65U U72C,0.15
14,C4U C38U U67C,0.2
15,A3G G16U A21G,0.16
16,A3U G8U A47G A56G U69G,0.05
17,A3U C44A U66A U69C,0.39
18,A3U A47G U66C U72A A75G U80A,0.32
19,A3U C12U G16A U31A U60C,0.12
20,C4G A5G U54C U76C,0.78
21,C4U C12A C29U A45G G61A U76A,0.72
22,A3G U31C A57G U72C,0.93
23,A3U C38U A65G U66C C71A U76C,0.21
24,C4U A56U U58A,0.61

row,Variant,self-cleavage
1,A3G U51A U60C A75G,0.42
2,A3U A15G A57G U78C C79G U80C,0.95
3,A3G U31C A47G U49G U72C U78C,0.51
4,A3U A56G U78C,0.86
5,C4G A18G G24U U54C,0.08
6,C4U A35G C37A U51C U66C U67C,0.16
7,A3G U41A A45U A65G U76C,0.4
8,A3U A35U A56U,0.42
9,A3U C11G U72G U80C,0.87
10,A3G G16A G24A U25A C44U,0.36
11,A3G U31A A35U G36C A75U,0.71
12,A3G U31C U67C U74C,0.25
13,C4A U26A U31C U58A C71A,0.09
14,A3G U26C U41C C71G,0.19
15,A3G U25C U26C A28U C62U U69G,0.06
16,A3G U41G A65G U72A U78C,0.1
17,A3G U25A C44U U72C,0.08
18,A3U G24A A57G,0.41
19,C4U A13C U31C U51A U74G U76C,1.07
20,C4U G6A A18U A64G A75U,0.08
21,A3U U43C U69G,0.26
22,A3G U25A U78C,0.61
23,C4U A65G U69A U72A,0.52
